Test results reported in paper PMC6919601, “Identification of Plasmodium dipeptidyl aminopeptidase allosteric inhibitors by high throughput screening” (PLoS ONE, 2019).
The whole screen tested about 110,000 compounds, of which about 230 (0.21%) showed an effect of 50% or more. Some of the results follow.

Each compound was assayed against DPAP1 (Plasmodium falciparum, UniProt Q8IIJ9) (assay: primary screen, percent inhibition; read by cleavage of a fluorogenic dipeptide substrate; higher = more effect of the substance).
Chain of DPAP1 (Q8IIJ9 whole entry, looked up): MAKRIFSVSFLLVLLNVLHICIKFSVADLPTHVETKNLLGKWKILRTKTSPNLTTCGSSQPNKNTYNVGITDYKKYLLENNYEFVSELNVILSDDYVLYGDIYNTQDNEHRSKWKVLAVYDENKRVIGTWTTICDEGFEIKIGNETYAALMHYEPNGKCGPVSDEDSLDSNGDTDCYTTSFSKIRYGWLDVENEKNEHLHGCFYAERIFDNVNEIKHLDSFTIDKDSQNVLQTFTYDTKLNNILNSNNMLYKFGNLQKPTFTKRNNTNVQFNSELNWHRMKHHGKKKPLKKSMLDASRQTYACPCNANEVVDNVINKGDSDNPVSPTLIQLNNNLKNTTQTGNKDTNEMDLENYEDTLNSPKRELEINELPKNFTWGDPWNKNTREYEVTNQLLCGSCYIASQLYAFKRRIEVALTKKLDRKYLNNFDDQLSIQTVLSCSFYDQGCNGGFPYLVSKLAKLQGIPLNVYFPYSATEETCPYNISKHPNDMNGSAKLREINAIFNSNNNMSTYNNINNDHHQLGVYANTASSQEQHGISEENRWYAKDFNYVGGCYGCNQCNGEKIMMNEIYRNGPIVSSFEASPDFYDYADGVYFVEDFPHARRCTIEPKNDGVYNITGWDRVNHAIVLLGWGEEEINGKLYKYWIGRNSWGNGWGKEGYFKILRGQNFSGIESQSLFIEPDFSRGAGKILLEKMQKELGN
Set-up: species or system P. falciparum D10 trophozoite lysates; single well
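Also: 30 min substrate incubation versus DMSO and 10 µM JCP410 controls.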

| Structure (SMILES) | % Inhibition @ 10 uM [%] |
| --- | --- |
| Cc1ccccc1Oc1ccc(S(=O)(=O)N2CCN(Cc3ccc4c(c3)OCO4)CC2)cc1 | -6.65 |
| CCCCN1C(=O)C(F)(c2ccccc2)C(=O)c2ccccc21 (stereo not drawn) | -9.55 |
| CCN(CC)S(=O)(=O)c1ccc(-c2csc(N3N=C(c4ccccc4)CC3c3ccccc3)n2)cc1 (stereo not drawn) | -0.771 |
| C=CCN(C(=O)c1ccc(Cl)cc1Cl)c1nnc(-c2ccncc2)s1 | -4.35 |
| CC(CCc1ccc(O)cc1)NC1C2CC3CC(C2)CC1C3 (stereo not drawn) | -0.0494 |
| Clc1cccc(-c2nnc3sc(-c4cnccn4)nn23)c1 | 7.5 |
| CCCCSc1nc(C)c(C(C)=O)cc1C#N | 3.65 |
| COc1cccc(C2NC(C(=O)O)Cc3c2[nH]c2ccccc32)c1 (stereo not drawn) | -3.62 |
| CCOc1ccccc1NC(=O)C1=C(C)NC(=O)NC1c1c(OC)ccc2ccccc12 (stereo not drawn) | 1.4 |
| CC(C)CC(NC(=O)/C(=C\c1ccc(F)cc1)NC(=O)c1ccco1)C(=O)O (stereo not drawn) | 16.7 |
| CCN1CCCC1CNC(=O)C1=CCN(S(=O)(=O)c2ccccc2)CC1 (stereo not drawn) | 0.137 |
| Cn1c(/C(=C/c2ccc(Cl)cc2Cl)C2=NC(=O)CS2)nc2cccnc21 | -10.7 |
| COc1ccc(-c2noc(-c3ccccn3)n2)cc1OC | -7.17 |
| O=C(O)c1cnc2c(Cl)cccc2c1O | -6.22 |
| CC(NC(=O)c1cccc([N+](=O)[O-])c1)c1ccccc1 (stereo not drawn) | 3.42 |
| CCOc1ccc(NC(=O)COc2ccc(CC)cc2Br)cc1 | -1.11 |
| CC1C(=O)C(C)C(c2ccc(N(C)C)cc2)NC1c1ccc(N(C)C)cc1 (stereo not drawn) | 2.45 |
| COc1cccc(CN2CCC(O)CC2)c1 | -3.56 |
| CCC(C(=O)NC(C)CCc1ccccc1)n1nc(C)n2c(cc3sccc32)c1=O (stereo not drawn) | 0.137 |
| COc1c(Cl)cc(-c2noc(C)c2C(=O)NCc2ccc3c(c2)OCO3)cc1Cl | 2.9 |
| O=C(c1cc(S(=O)(=O)N2CCCCC2)c[nH]1)N1CCN(C(c2ccccc2)c2ccccc2)CC1 | 3.46 |
| Cc1noc(C)c1S(=O)(=O)N1CCCC(C(=O)NCc2ccccc2Cl)C1 (stereo not drawn) | -1.03 |
| Cc1cc(O)c2c(C)c(CC(=O)N3CCCC3)c(=O)oc2c1 | 2.54 |
| CC1=C(c2ccc(C(C)C)cc2)S(=O)(=O)N=C1NCc1ccc(C)cc1 | 2.27 |
| CC(C)N(CCC#N)S(=O)(=O)c1ccc([N+](=O)[O-])cc1 | -4.06 |
| CCOc1cc(/C=C2/SC(=O)N(CC)C2=O)c(Br)cc1O | -5.54 |

| Structure (SMILES) | % Inhibition @ 10 uM [%] |
| --- | --- |
| CCN(CC)S(=O)(=O)c1ccc(S(=O)(=O)N(Cc2ccc(F)cc2)Cc2ccco2)cc1 | 3.66 |
| CCCCCCS(=O)(=O)Nc1ccc([N+](=O)[O-])cc1O | -0.294 |
| CCCCNc1ncnc2c1cnn2-c1ccc(Cl)cc1 | 5.38 |
| CCCOc1ccc(CC(=N)N)cc1 | 2.46 |
| COC(=O)c1sccc1S(=O)(=O)N1CCC(C)CC1 | -2.66 |
| CCN(CC)CCC#CC(OC)(c1ccccc1)c1ccccc1 | -1.77 |
| CCSc1nnc(NC(=O)c2cc(-c3cccs3)nc3ccccc23)s1 | -1.1 |
| CCc1nnc2c3c4c(sc3ncn12)CCC4 | -4.35 |
| CSc1nn(C)c2nc3sc4c(c3c(=O)n12)CC(C)(C)OC4 | -1.2 |
| COc1ccccc1CCNC1CCN(C(C)=O)CC1 | 1.38 |
| COC(=O)c1c(C)oc2ccc(OCc3c(F)c(F)c(F)c(F)c3F)cc12 | -4.24 |
| Cc1cc(C)c(S(=O)(=O)NC(=O)C23CC4CC(CC(C4)C2)C3)c(C)c1 | 5.04 |
| O=C1C2CC=CCC2C(=O)N1c1ccccc1O (stereo not drawn) | -2.8 |
| COc1ccc(CCNC(=O)Cn2cc(S(=O)(=O)Cc3ccccc3)c3ccccc32)cc1OC | -1.6 |
| Cc1cccc(-n2ncc3c2ncn2c(COc4ccccc4C)nnc32)c1 | -5.85 |
| Cc1cc(O)nc(SCC(=O)Nc2cccc(C)c2C)n1 | 5.15 |
| CC(C(=O)N1CCN(c2ccccn2)CC1)n1sc2ccccc2c1=O (stereo not drawn) | -6.64 |
| CCCC12CCC(C(=O)O)(CC1)CC2 | 4.16 |
| CC(C)CCNC(=O)Cn1ncc2c3ccccc3nc-2c1O | -5.3 |
| COc1ccc(/C(O)=C/C=N/c2ccccc2F)cc1OC | -4.71 |
| CCCN(CCO)Cc1ccc(F)cc1 | -4.14 |
| COCCNC(=O)CCCc1nnc2n(Cc3ccccc3)c(=O)c3ccccc3n12 | 1.68 |
| CCN1CCCC1CNC(=O)Cn1nc(C)n2cccc2c1=O (stereo not drawn) | -8.41 |
| O=C(O)C(=O)N[C@@H](CC1CCCCC1)C(=O)N[C@@H](CCc1ccccc1)C(=O)c1nc2ccccc2o1 | -5.21 |
| Cn1cccc1CNCCCSc1nnnn1C | 0.386 |
